Laboratory results: paper PMC4900556 (2016)

Biological target: T1, Drebrin 1-300 (Homo sapiens, UniProt Q16643)
T1 chain: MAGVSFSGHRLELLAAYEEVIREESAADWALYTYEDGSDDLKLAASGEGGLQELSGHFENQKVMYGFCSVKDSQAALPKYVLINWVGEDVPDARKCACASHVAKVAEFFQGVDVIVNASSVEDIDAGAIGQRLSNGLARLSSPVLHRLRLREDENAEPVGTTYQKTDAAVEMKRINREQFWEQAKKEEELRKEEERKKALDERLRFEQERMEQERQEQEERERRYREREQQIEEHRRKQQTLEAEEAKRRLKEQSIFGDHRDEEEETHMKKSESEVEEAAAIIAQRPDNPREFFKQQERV
Assay: NMR

Kd: 279 µM and 344 µM and 283 µM
B1: Connexin43 CTD (protein)
chain: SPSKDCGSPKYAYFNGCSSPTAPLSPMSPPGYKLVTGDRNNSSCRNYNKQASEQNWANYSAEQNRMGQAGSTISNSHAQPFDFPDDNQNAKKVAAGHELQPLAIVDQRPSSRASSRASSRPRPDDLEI

Several values for one entry are separate records, joined by “and”; a condition that tells them apart may be missing. Equal entries are not always repeated.
